Where “and” joins values, the source holds several entries; their conditions need not be identical. Equal values may be shown once. Screen size: about 420,000 compounds; about 64,000 (15%) were called active. The inconclusive results got no clear call from the source; some entries with a clear call stand among them for comparison. The call rests on the fitted dose curve; in most records, active means well fitted inhibition curve with a large enough effect; inconclusive means small, poorly fitted or top-dose-only effect; inactive means flat fitted curve, though single readings scatter. Potencies beside an inconclusive call are fits to weak or partial responses and may not hold up.
Test: qHTS for Inhibitors of human tyrosyl-DNA phosphodiesterase 1 (TDP1): qHTS in cells in absence of CPT; further: nearly all actives have a fitted effect of over 55% in size
Details: DT40 Tdp1-/- hTDP1 cells, no CPT, ATP luminescence, 48 h; activity change, negative = growth inhibition: at 46.2 µM (top of the series) unless noted
How it was run: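 No-CPT arm: Tdp1-/-;hTDP1 DT40 cells (400/well) plus compounds, incubated ≥48 hr at 37 °C. Readout CellTiter-Glo luminescence.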
On the % scale 0 is the no-effect control and ±100 the full control effect; potency means the concentration at half of the fitted maximal effect; tags describe the fitted curve by direction and shape.

Question: With `COc1cccc2cc(-c3nc(-c4ccc(Cl)cc4)cs3)c(=O)oc12` as the compound, how does the Potency read?
Answer: inconclusive: 18.4 µM [inhibitor, single point]

Question: Which Potency does the source give for `Cc1ccc(S(=O)(=O)N2CCN(c3nc(-c4cccs4)nc4nc[nH]c34)CC2)cc1` here?
Answer: inconclusive: 20 µM [inhibitor, single point]

Question: Which Potency does the source give for `COc1ccc(C2CC(c3cc(Br)ccc3F)n3nnnc3N2)cc1` (stereo not given) here?
Answer: inconclusive: 18.4 µM [inhibitor, single point]

Question: Which Potency does the source give for `NC1=NC(=Nc2ccccc2)c2ccccc21` here?
Answer: inconclusive: 23.1 µM [inhibitor, single point]

Question: With `CCn1c(=O)c2sccc2n2c(CCCC(=O)N3CCN(c4ccc(F)cc4)CC3)nnc12` as the compound, how does the Potency read?
Answer: active: 18.4 µM

Question: Which Potency does the source give for `CCNc1nc(NC(C)C)nc(OCCOC(=O)c2ccccc2)n1` here?
Answer: inconclusive: 20.6 µM [inhibitor, single point]

Question: Which Potency does the source give for `CCCCOc1ccc(C(=O)N(Cc2ccccc2)C2CCS(=O)(=O)C2)cc1` (stereo not given) here?
Answer: inconclusive: 29.1 µM [inhibitor, single point] and inconclusive: 20.6 µM [inhibitor, single point]

Question: With `CC(c1ccco1)N(C(=O)c1ccc(S(=O)(=O)N2CCCCC2)cc1)c1ccccn1` (stereo not given) as the compound, how does the activity change, negative = growth inhibition read?
Answer: inconclusive: -33.5% [inhibitor]

Question: With `CCOC(=O)c1cc[n+](CC(=O)c2ccc(F)cc2)cc1` as the compound, how does the “activity change, negative = growth inhibition” value read?
Answer: inactive: -8.7%

Question: For `CC(=O)c1c(Cl)nc2cccc3c2c1-c1ccccc1C3=O`, which Potency is on record?
Answer: inconclusive: 2.31 µM [inhibitor, full curve]

Question: For `CC(=O)c1cccc(NC(=O)c2ccc3nc(Cc4ccccc4)oc3c2)c1`, which Potency is on record?
Answer: inconclusive: 18.4 µM [inhibitor, single point]

Question: Which “activity change, negative = growth inhibition” value does the source give for `COc1ccc(/C=N/NC(=O)c2ccco2)cc1COc1ccc(F)cc1` here?
Answer: inactive: -29.2%

Question: Which Potency does the source give for `O=C(Nc1ccc(N2CCOCC2)cc1)c1ccc(Cl)c(S(=O)(=O)N2CCCCC2)c1` here?
Answer: inconclusive: 16.4 µM [inhibitor, single point]

Question: Which Potency does the source give for `O=C(CSc1ncccc1C(=O)Oc1ccccc1Cl)Nc1ccc(C(F)(F)F)cc1Cl` here?
Answer: active: 23.1 µM

Question: With `Cc1cc(NC(=O)c2noc3c2CCc2ccccc2-3)n(-c2ccccc2)n1` as the compound, how does the Potency read?
Answer: inconclusive: 8.2 µM [inhibitor, single point]

Question: For `CC(C)c1csc(CN2CCC(CO)(Cc3ccccc3)CC2)n1`, which Potency is on record?
Answer: inconclusive: 25.9 µM [inhibitor, single point]

Question: Which “activity change, negative = growth inhibition” value does the source give for `Cc1ccccc1OCCC(=O)Nc1c(C)n(C)n(-c2ccccc2)c1=O` here?
Answer: inactive: 0.764%

Question: For `O=C1c2ccccc2-c2cccc(C(=O)N3CCCCCC3)c21`, which Potency is on record?
Answer: inconclusive: 16.4 µM [inhibitor, partial curve]

Question: For `NC(Cc1ccccc1)c1csc(Nc2ccc(C(=O)NCCCO)cn2)n1` (stereo not given), which Potency is on record?
Answer: inconclusive: 20.6 µM [inhibitor, single point]

Question: Which “activity change, negative = growth inhibition” value does the source give for `COC(=O)c1ccc(NC(=O)C(=O)NCCc2csc(-c3ccc(F)cc3)n2)cc1` here?
Answer: inactive: -1.86%

Question: Which “activity change, negative = growth inhibition” value does the source give for `CC(C)NC(=O)NC(=O)COC(=O)CCCSc1nc2ccccc2s1` here?
Answer: inactive: -7.46%

Question: For `O=C(CN1C(=O)c2ccccc2S1(=O)=O)c1cccc(Br)c1`, which “activity change, negative = growth inhibition” value is on record?
Answer: inactive: -4.38%

Question: For `Cc1cc(C(=O)COC(=O)c2cccc(S(=O)(=O)N(C)C)c2)c(C)n1CC1CCCO1` (stereo not given), which Potency is on record?
Answer: inconclusive: 29.1 µM [inhibitor, single point]

Question: With `CCCCCn1c(SCC(=O)OCC)nc2cc(C(=O)N3CCC(C(N)=O)CC3)ccc2c1=O` as the compound, how does the “activity change, negative = growth inhibition” value read?
Answer: inactive: -14.3%

Question: With `COc1ccc(-n2cc(-c3ccccc3)[nH]c2=S)cc1` as the compound, how does the Potency read?
Answer: active: 16.4 µM

Question: With `COc1ccc(C(NC(=O)COc2ccc(C#N)cc2)c2ccc(OC)cc2)cc1` as the compound, how does the Potency read?
Answer: inconclusive: 22.4 µM [inhibitor, single point]

Question: With `CCCC/C=C1/CCC(CN(C)C)C1=O` (stereo not given) as the compound, how does the Potency read?
Answer: active: 2.31 µM

Question: Which Potency does the source give for `N#CC(C#N)=C(Nc1ccc(F)cc1)SCc1cccc(Br)c1` here?
Answer: active: 2.31 µM

Question: Which Potency does the source give for `Cc1ccc(NC(=O)C2(C)CCN2CCc2ccccc2)cc1` (stereo not given) here?
Answer: inconclusive: 23.1 µM [inhibitor, single point]

Question: Which Potency does the source give for `CCC1(c2ccc(F)cc2)NC(=O)N(CC(=O)Nc2ccc(-c3nc4ccc(C)cc4s3)cc2)C1=O` (stereo not given) here?
Answer: active: 6.51 µM

Question: Which Potency does the source give for `FC(F)(F)c1cnc(Sc2nnc(-c3cccs3)n2CC2CCCO2)c(Cl)c1` (stereo not given) here?
Answer: inconclusive: 35.5 µM [inhibitor, single point]

Question: With `O=C(NCC(=O)N(c1ccc(Cl)cc1)C(C(=O)NC1CCCC1)c1ccncc1)c1ccco1` (stereo not given) as the compound, how does the “activity change, negative = growth inhibition” value read?
Answer: inactive: -0.562%

Question: Which Potency does the source give for `Cn1c(Oc2ccccc2NCc2cccc(Br)c2)cc(=O)n(C)c1=O` here?
Answer: inconclusive: 23.1 µM [inhibitor, single point]

Question: Which Potency does the source give for `Cc1ccc(CSc2nnc(SCC(=O)N/N=C/C=C/c3ccco3)s2)cc1` here?
Answer: inconclusive: 29.1 µM [inhibitor, single point]

Question: With `COC(=O)CSc1nc2c(c(=O)n(C)c(=O)n2C)n1CCCc1ccccc1` as the compound, how does the activity change, negative = growth inhibition read?
Answer: inconclusive: -33% [inhibitor]

Question: Which Potency does the source give for `O=C(Nn1c(-c2ccc(Br)cc2)nc2ccccc2c1=O)c1cccnc1` here?
Answer: active: 23.1 µM

Question: Which Potency does the source give for `COc1ccc(F)cc1-c1cc(C(=O)NCc2cccc(C(F)(F)F)c2)[nH]n1` here?
Answer: inconclusive: 23.1 µM [inhibitor, single point]

Question: Which Potency does the source give for `COc1ccc(NC(=O)C2CCCN(S(=O)(=O)c3ccc(F)cc3)C2)cc1` (stereo not given) here?
Answer: active: 14.6 µM

Question: Which “activity change, negative = growth inhibition” value does the source give for `COc1ccc(N2CC(C(=O)OC(C)C(=O)c3ccccc3)CC2=O)cc1` (stereo not given) here?
Answer: inactive: 11.5%

Question: Which Potency does the source give for `CC(NC(=S)NCCc1ccccc1)C(c1cccs1)N1CCN(Cc2ccccc2)CC1` (stereo not given) here?
Answer: inconclusive: 20.6 µM [inhibitor, single point]

Question: Which Potency does the source give for `O=C1SCCN1N=Cc1ccc([N+](=O)[O-])o1` here?
Answer: active: 18.4 µM

Question: For `Cc1cc(C(=O)COc2ccc3ccc(=O)oc3c2)c(C)n1Cc1cccs1`, which Potency is on record?
Answer: inconclusive: 29.1 µM [inhibitor, single point]

Question: Which Potency does the source give for `Cc1ccc(CN(C(=O)COc2ccccc2[N+](=O)[O-])c2ccccn2)o1` here?
Answer: inconclusive: 11.6 µM [inhibitor, partial curve]

Question: For `CCN(C(=O)COC(=O)c1ccc2c(c1)OCO2)c1ccc(F)cc1`, which “activity change, negative = growth inhibition” value is on record?
Answer: inactive: -0.841%

Question: For `O=[N+]([O-])c1ccc(S(=O)Cc2ccccc2)c([N+](=O)[O-])c1` (stereo not given), which Potency is on record?
Answer: active: 0.58 µM

Question: With `CC(C)Cc1ccc(C(=O)Nc2ccc(Cc3ccncc3)cc2)o1` as the compound, how does the Potency read?
Answer: inconclusive: 5.17 µM [inhibitor, single point]

Question: With `CCOC(=O)C1=C(CSc2nc3ccccc3s2)NC(=O)NC1c1ccc(OC)cc1` (stereo not given) as the compound, how does the Potency read?
Answer: active: 18.4 µM

Question: Which Potency does the source give for `O=C(Cc1ccccc1F)Nc1ccc2c(c1)CCC2` here?
Answer: inconclusive: 14.6 µM [inhibitor, partial curve, poor fit]

Question: For `COc1cccc(/C=N/NC(=O)C(C)Cn2cnc3ccccc32)c1` (stereo not given), which Potency is on record?
Answer: inconclusive: 29.1 µM [inhibitor, single point]

Question: Which Potency does the source give for `O=C(c1ccccc1Br)N1N=C(c2ccccc2)CC1c1ccccc1F` (stereo not given) here?
Answer: inconclusive: 29.1 µM [inhibitor, single point]

Question: Which “activity change, negative = growth inhibition” value does the source give for `CC(/C=C1\SC(=S)N(NC(=O)c2ccccc2C)C1=O)=C\c1ccccc1` here?
Answer: inactive: -18.6%

Question: With `CN(c1ccccc1)S(=O)(=O)c1cccc(NC(=O)C2=NNC(=O)CC2)c1` as the compound, how does the Potency read?
Answer: inconclusive: 23.1 µM [inhibitor, single point]

Question: For `C=CCN(c1ccccc1)S(=O)(=O)c1ccc(Cl)c(C(=O)OCC(=O)c2[nH]c(C)c(C(C)=O)c2C)c1`, which Potency is on record?
Answer: inconclusive: 14.6 µM [inhibitor, partial curve, poor fit]

Question: With `CCOC(=O)C1=CC[C@@H](c2ccc(F)cc2)N(S(=O)(=O)c2ccc(C)cc2)[C@H]1c1ccccc1` as the compound, how does the Potency read?
Answer: active: 23.1 µM

Question: Which “activity change, negative = growth inhibition” value does the source give for `COc1ccccc1C(=O)NCCC(=O)NCc1cccs1` here?
Answer: inactive: -6.71%

Question: With `COc1ccc(NC(=O)Cn2c(=O)oc3cc(S(=O)(=O)N4CCCCCC4)ccc32)cc1OC` as the compound, how does the Potency read?
Answer: active: 13 µM

Question: For `Cc1ccc(NC(=O)C2(C)CCN2C(=O)Cc2cc(F)ccc2F)cc1` (stereo not given), which Potency is on record?
Answer: inconclusive: 16.4 µM [inhibitor, single point]

Question: With `CN(C)CCN(Cc1ccccc1)C(=O)c1[nH]c(C(F)(F)F)nc1-c1ccccc1` as the compound, how does the Potency read?
Answer: inconclusive: 29.1 µM [inhibitor, single point]

Question: Which Potency does the source give for `COC(=O)/C=C/C(C)=C/C=C/C(C)=C/C=C/C=C(C)/C=C/C=C(C)/C=C/C(=O)O` here?
Answer: inconclusive: 6.51 µM [inhibitor, single point]

Question: With `CCn1c(CSc2nc(C)cc(C)n2)nnc1SCC(=O)Nc1nc(-c2ccccc2)cs1` as the compound, how does the Potency read?
Answer: inconclusive: 23.1 µM [inhibitor, partial curve, poor fit]

Question: For `O=C(CCN1Cc2ccccc2OC(c2ccccc2F)C1)N1CCC(N2CCCC(O)C2)CC1` (stereo not given), which “activity change, negative = growth inhibition” value is on record?
Answer: inactive: -21.3%

Question: Which “activity change, negative = growth inhibition” value does the source give for `CCC(C)c1ccccc1N1CC(C(=O)N2CCN(C(=O)c3ccco3)CC2)CC1=O` (stereo not given) here?
Answer: inactive: 6.08%

Question: For `Cc1ccc(CCNC(=O)c2cc(S(=O)(=O)N3CCCC3)cn2C)cc1`, which “activity change, negative = growth inhibition” value is on record?
Answer: inactive: -22.5%

Question: With `COc1ccc(-c2noc(CCC(=O)Nc3cccc(C)c3)n2)cc1` as the compound, how does the Potency read?
Answer: inconclusive: 25.9 µM [inhibitor, single point]

Question: Which Potency does the source give for `O=C(CSc1nc2[nH]ncc2c(=O)n1-c1ccc(Cl)c(Cl)c1)NCc1ccccc1Cl` here?
Answer: inconclusive: 29.1 µM [inhibitor, single point]

Question: Which “activity change, negative = growth inhibition” value does the source give for `O=C(NCc1ccccn1)c1cc(-c2ccccc2Cl)nc2ccccc12` here?
Answer: inactive: -14.1%

Question: For `O/N=C/c1ccc(OCC(O)COc2ccc(/C=N/O)cc2)cc1`, which Potency is on record?
Answer: inconclusive: 23.1 µM [inhibitor, single point]

Question: Which “activity change, negative = growth inhibition” value does the source give for `CSC1=NC(=O)/C(=C\c2cccc3ccccc23)S1` here?
Answer: inactive: -17.6%

Question: For `CCC(C)NCCOCCOc1ccc(Cl)c(C)c1C` (stereo not given), which Potency is on record?
Answer: active: 13 µM

Question: Which Potency does the source give for `COc1ccc(OC)c(S(=O)(=O)N(C)CC(=O)N2CCN(c3ccccc3F)CC2)c1` here?
Answer: inconclusive: 9.2 µM [inhibitor, partial curve]

— PubChem BioAssay AID686978 (National Center for Advancing Translational Sciences (NCATS), 2013)
